# Results taken from PubChem BioAssay AID504333 (National Center for Advancing Translational Sciences (NCATS), 2011).
# Out of some 360,000 compounds screened, about 16,000 (4.4%) were called active. The shares of active, inactive and inconclusive entries below differ from those in the screen. Calls follow the shape of the dose curve; as a rule, active = well fitted inhibition curve with a large enough effect; inconclusive = small, poorly fitted or top-dose-only effect; inactive = no such curve, though single readings can be large or run the other way. Potencies of inconclusive entries are doubtful fits and often do not repeat.
# Target: Bromodomain adjacent to zinc finger domain protein 2B (Homo sapiens) (UniProt Q9UIF8)
# Chain of UniProt Q9UIF8 (Q9UIF8 whole entry, looked up, the tested form may be a part): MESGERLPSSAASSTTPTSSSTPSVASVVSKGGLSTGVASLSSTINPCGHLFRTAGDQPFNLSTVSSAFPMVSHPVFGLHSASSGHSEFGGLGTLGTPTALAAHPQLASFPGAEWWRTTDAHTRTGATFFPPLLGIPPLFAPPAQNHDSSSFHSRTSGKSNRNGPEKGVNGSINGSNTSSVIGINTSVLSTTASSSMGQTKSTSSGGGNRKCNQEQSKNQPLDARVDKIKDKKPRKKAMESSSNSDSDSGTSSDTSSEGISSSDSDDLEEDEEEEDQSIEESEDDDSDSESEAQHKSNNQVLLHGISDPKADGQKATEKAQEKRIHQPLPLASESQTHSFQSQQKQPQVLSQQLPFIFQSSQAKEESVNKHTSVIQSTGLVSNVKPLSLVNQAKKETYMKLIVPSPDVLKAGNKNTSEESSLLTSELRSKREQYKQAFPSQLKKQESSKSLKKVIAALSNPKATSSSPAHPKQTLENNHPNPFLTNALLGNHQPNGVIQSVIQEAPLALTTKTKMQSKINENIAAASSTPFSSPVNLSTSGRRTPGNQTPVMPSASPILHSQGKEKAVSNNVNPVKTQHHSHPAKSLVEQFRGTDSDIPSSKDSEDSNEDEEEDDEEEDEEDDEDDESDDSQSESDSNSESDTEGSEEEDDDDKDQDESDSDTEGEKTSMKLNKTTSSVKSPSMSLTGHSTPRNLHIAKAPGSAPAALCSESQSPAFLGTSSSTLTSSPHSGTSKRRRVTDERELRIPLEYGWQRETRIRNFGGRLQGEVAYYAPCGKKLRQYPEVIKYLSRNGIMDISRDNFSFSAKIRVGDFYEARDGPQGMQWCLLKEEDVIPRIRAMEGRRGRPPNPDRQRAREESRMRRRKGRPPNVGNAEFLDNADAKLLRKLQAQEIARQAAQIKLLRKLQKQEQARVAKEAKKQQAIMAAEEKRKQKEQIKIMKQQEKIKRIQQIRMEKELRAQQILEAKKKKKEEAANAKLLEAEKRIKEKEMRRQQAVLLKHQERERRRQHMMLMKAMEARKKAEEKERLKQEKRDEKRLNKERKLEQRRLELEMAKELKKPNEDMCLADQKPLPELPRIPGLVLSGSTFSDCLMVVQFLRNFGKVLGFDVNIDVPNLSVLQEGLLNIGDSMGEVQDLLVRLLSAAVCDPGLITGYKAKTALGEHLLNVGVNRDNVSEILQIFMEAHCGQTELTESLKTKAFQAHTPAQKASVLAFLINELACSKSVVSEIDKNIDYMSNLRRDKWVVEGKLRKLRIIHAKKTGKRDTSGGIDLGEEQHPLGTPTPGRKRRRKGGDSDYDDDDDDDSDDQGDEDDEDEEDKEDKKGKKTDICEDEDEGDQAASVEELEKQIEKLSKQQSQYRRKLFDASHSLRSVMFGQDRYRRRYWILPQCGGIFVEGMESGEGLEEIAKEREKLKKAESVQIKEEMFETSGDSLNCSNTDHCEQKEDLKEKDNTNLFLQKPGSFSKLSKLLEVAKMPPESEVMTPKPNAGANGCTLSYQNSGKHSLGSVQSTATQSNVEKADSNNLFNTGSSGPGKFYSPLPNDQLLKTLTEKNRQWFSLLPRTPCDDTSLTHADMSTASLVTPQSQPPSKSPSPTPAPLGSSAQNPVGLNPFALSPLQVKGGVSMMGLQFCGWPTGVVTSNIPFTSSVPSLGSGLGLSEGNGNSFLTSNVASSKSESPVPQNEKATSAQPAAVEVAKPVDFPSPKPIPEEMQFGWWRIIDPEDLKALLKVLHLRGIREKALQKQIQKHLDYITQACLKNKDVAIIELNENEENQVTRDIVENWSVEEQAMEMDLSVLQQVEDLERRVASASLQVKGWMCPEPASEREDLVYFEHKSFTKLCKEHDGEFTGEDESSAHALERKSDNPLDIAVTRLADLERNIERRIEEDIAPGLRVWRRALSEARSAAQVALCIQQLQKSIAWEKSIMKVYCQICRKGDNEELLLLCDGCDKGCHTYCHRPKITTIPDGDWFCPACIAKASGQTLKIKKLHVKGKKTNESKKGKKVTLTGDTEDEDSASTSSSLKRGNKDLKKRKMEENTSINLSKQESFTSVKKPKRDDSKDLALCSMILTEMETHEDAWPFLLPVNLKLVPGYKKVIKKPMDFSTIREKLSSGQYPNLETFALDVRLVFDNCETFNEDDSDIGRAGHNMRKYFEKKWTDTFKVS
# Experiment: qHTS Assay for Inhibitors of BAZ2B; also: nearly all actives have a fitted effect of over 60% in size
# Conditions: AlphaScreen BAZ2B-H3K14Ac peptide displacement; activity change, negative = inhibition: at 114 µM (top of the series)
# Outline: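 BAZ2B (50 nM) with biotin-H3(5-23)K14Ac peptide (50 nM) in PBS pH 7.4, 0.01% Tween-20, preformed 30 min, then compound 30 min at room temperature; top concentration 110uM. AlphaScreen streptavidin donor/nickel chelate acceptor beads (10 ug/mL final), 20 min dark, signal read.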
# % is scaled to controls: 0 for no effect and ±100 for the full control effect; potency is read from the fitted curve at half-maximal effect; tags tell the direction and shape of the fitted curve.
Compound,Potency,"activity change, negative = inhibition"
Cc1ccccc1NC(=O)Cn1cc(C(=O)c2ccco2)c2ccccc21,"inconclusive: 89.1 µM [inhibitor, single point]",–
Cc1cc(=O)[nH]c(N/N=C/c2c(C)nn(-c3ccccc3Cl)c2Cl)n1,"inconclusive: 79.4 µM [inhibitor, single point]",–
O=C(/C=C/c1ccco1)NC(=S)Nc1ccc(C(=O)O)cc1,active: 31.6 µM,–
Cc1ccc(C)c(N2CCN(c3ncnc4c3nc3n4CCCC3)CC2)c1,"inconclusive: 70.8 µM [inhibitor, single point]",–
CCO/C=C1\C(=O)N(c2ccccc2)C(=O)c2ccccc21,"inconclusive: 89.1 µM [inhibitor, single point]",–
O=C(c1ccc(Cl)c(Cl)c1)N1CCN(Cc2ccc3c(c2)OCO3)CC1,"inconclusive: 89.1 µM [inhibitor, single point]",–
Cc1ccc(Cl)cc1-c1ccc(C=Nc2ccc(N3CCOCC3)cc2)o1,active: 28.2 µM,–
COc1ccc(CCN(C)C(=O)COC(=O)/C=C/c2ccc(C)o2)cc1OC,"inconclusive: 89.1 µM [inhibitor, single point]",–
Oc1ccccc1CNCCCN1CCOCC1,"inconclusive: 89.1 µM [inhibitor, single point]",–
Cc1cc(OCC(=O)Nc2ccc(N3CCN(C(=O)c4ccco4)CC3)cc2)cc(C)c1Cl,"inconclusive: 79.4 µM [inhibitor, single point]",–
CCOc1ccc(-n2cc(-c3ccccc3)c3c(NCCc4ccccc4)ncnc32)cc1,"inconclusive: 14.1 µM [inhibitor, full curve]",–
CC(=O)c1ccc(NC(=S)Nc2cccc3cnccc23)cc1,"inconclusive: 79.4 µM [inhibitor, partial curve]",–
CCCOCc1ccc(O)c2ncccc12,active: 12.6 µM,–
COc1ccccc1C(=O)NC(=O)COC(=O)c1cccc(OC(F)F)c1,–,inactive: 7.27%
CCC(=O)N(CCC(c1ccc(C)cc1)c1ccco1)Cc1ccco1 (centres undefined),active: 50.1 µM,–
CC(=O)Nc1ccc(NC(=O)c2oc3c(c2C)-c2nn(Cc4ccccc4Cl)cc2CC3)cc1,–,inactive: -4.34%
CCc1ccc2nc(N(Cc3cccnc3)C(=O)c3ccc(C#N)cc3)sc2c1,"inconclusive: 70.8 µM [inhibitor, single point]",–
Cc1ccc(NCc2nc(SCC(=O)Nc3ccccc3)n[nH]2)cc1,"inconclusive: 89.1 µM [inhibitor, single point]",–
Cn1nccc1C(=O)OCC(=O)Nc1nc(-c2ccccc2)cs1,"inconclusive: 100 µM [inhibitor, single point]",–
COc1ccc([N+](=O)[O-])cc1N(CC(O)CN1C(=O)NC(C)(C)C1=O)S(=O)(=O)c1ccccc1 (centres undefined),–,inactive: 0.686%
Cc1ccc(NC(=O)CN2C(=O)CNC2=O)cc1,"inconclusive: 50.1 µM [inhibitor, partial curve]",–
O=C1c2ccccc2C(=O)N1CCCc1c[nH]c2ccccc12,"inconclusive: 44.7 µM [inhibitor, partial curve]",–

Compound,Potency,"activity change, negative = inhibition"
Cc1ccc(C2=NS(=O)(=O)N(C)C(C(=O)Nc3ccc4c(c3)OCO4)=C2)cc1,"inconclusive: 39.8 µM [inhibitor, full curve, poor fit]",–
CC(=O)c1c(C)[nH]c(C(=O)Nc2ccc3c(c2)OCCO3)c1C,"inconclusive: 79.4 µM [inhibitor, single point]",–
CC(C)n1nc(C(=O)Nc2nc3ccccc3[nH]2)c2ccccc2c1=O,"inconclusive: 28.2 µM [inhibitor, full curve]",–
N#C/C(=C(/O)CSc1ncn[nH]1)c1nc2ccccc2[nH]1,"inconclusive: 70.8 µM [inhibitor, single point]",–
Cc1cccc(-n2c(SCC(N)=O)nnc2-c2ccccn2)c1C,active: 17.8 µM,–
CCc1ccc2c(CN3CCN(S(=O)(=O)c4ccc5c(c4)OCCO5)CC3)cc(=O)oc2c1,–,inactive: 6.32%
CCOc1cc(/C=N/N=C(/N)c2nonc2N)cc(Br)c1OCc1ccc(Cl)cc1,"inconclusive: 28.2 µM [inhibitor, single point]",–
C=CCNc1nc(C)c(CNc2c(C)cc(C)cc2C)nc1C#N,"inconclusive: 70.8 µM [inhibitor, single point]",–
COc1ccc(CN2CCCC(C(=O)N3CCCCC3)C2)cc1OC (centres undefined),active: 70.8 µM,–
O=C1c2ccc(-c3ccc(F)cc3OCc3ccccc3)cc2S(=O)(=O)c2cccc(C(=O)N3CCCC3)c21,"inconclusive: 31.6 µM [inhibitor, partial curve]",–
COc1ccc(NC(=S)NNC(=O)c2ccccc2OC(F)F)cc1,–,inactive: 0.411%
CCN(CC)C(=O)c1ccc2c(=O)n(CCOC)c(=S)[nH]c2c1,"inconclusive: 89.1 µM [inhibitor, single point]",–
Cc1cc(C)cc(C(=O)Nc2cccc(NC(=O)c3ccco3)c2)c1,"inconclusive: 79.4 µM [inhibitor, single point]",–
Cc1nn(-c2cccc(C(=O)O)c2)c(C)c1[N+](=O)[O-],–,inactive: -18.2%
O=C1C=C(O)CC(c2cccs2)C1 (centres undefined),"inconclusive: 70.8 µM [inhibitor, single point]",–
COc1ccc(-c2csc(Nc3ncccc3C)n2)cc1OC,"inconclusive: 50.1 µM [inhibitor, partial curve]",–
O=C(c1ccc(F)cc1F)N(Cc1ccccn1)Cc1ccco1,"inconclusive: 89.1 µM [inhibitor, single point]",–
CCc1ccc(N(C(=O)Cn2nnc(-c3ccccc3)n2)C(C(=O)NC2CCCCC2)c2ccccn2)cc1 (centres undefined),"inconclusive: 89.1 µM [inhibitor, single point]",–
O=C1OCC2=C1C(c1cccc(Cl)c1)CC(=O)N2c1ccc(C(F)(F)F)cc1 (centres undefined),–,inactive: -15%
O=C(CCC1CCCC1)NNC(=O)c1ccc(F)cc1,–,inactive: -1.83%
O=C1c2ccccc2C(=O)C1c1ccc(Br)cc1,"inconclusive: 35.5 µM [inhibitor, partial curve]",–
CC1=NOC(=O)/C1=C/c1ccc(-c2ccc(Cl)cc2)o1,"inconclusive: 10 µM [inhibitor, full curve]",–
